Results as given in the supplement of paper PMC8007513.
Structures can show the parent of a compound that is named as a salt. ± gives the standard error. Hit rate of the full screen: of about 1,300 compounds, about 130 (10%) showed an effect of 50% or more. The list shows a part of the results, in another mix than the full data.

System: Trichoderma virens ATCC 9645
Test: growth yield (OD600) with compound + IPBC relative to untreated control; higher = less growth inhibition
Settings: compound concentration: 100 uM, IPBC concentration: 200 ng/ml
Procedure, shortened: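 Trichoderma virens ATCC 9645 spores from 7-day potato dextrose agar plates were suspended in potato dextrose broth at 15,000 spores ml^−1. Aliquots of 100 μl with library compounds at 100 μM final, with or without a co-applied biocide at 200 ng ml^−1, were grown in 96-well plates at 30 °C. OD600 was read at 40 h and 72 h on a BioTek EL800. Growth is expressed relative to the control without either agent, as means of duplicate screens.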

Row | SMILES | growth yield (40 h) [%] | growth yield (72 h) [%]
1 | C[C@]12CC[C@@H]3c4ccc(O)cc4CC[C@H]3[C@@H]1C[C@@H](O)[C@@H]2O [Estriol] + CCCCNC(=O)OCC#CI [3-iodo-2-propynyl butylcarbamate (IPBC)] | 83.07 ± 0.79 | 87.3 ± 1.1
2 | CCc1cccc2c3c([nH]c12)C(CC)(CC(=O)O)OCC3 (configuration not stated) [Etodolac] + CCCCNC(=O)OCC#CI [3-iodo-2-propynyl butylcarbamate (IPBC)] | 98.8 ± 0.95 | 99.32 ± 0.94
3 | CC[N+](CC)(CC)CCC(O)(c1ccccc1)C1CCCCC1 (configuration not stated) [Tridihexethyl chloride] + CCCCNC(=O)OCC#CI [3-iodo-2-propynyl butylcarbamate (IPBC)] | 90.1 ± 9.1 | 92.6 ± 6.6
4 | CC(Oc1c(Cl)cccc1Cl)C1=NCCN1 (configuration not stated) [Lofexidine] + CCCCNC(=O)OCC#CI [3-iodo-2-propynyl butylcarbamate (IPBC)] | 88 ± 6 | 92.4 ± 3.7
5 | CC1=C(CC(=O)O)c2cc(F)ccc2/C1=C\c1ccc([S+](C)[O-])cc1 (configuration not stated) [Sulindac] + CCCCNC(=O)OCC#CI [3-iodo-2-propynyl butylcarbamate (IPBC)] | 89.7 ± 4.3 | 91.7 ± 3.6
6 | CCOC(=O)[C@H](CCc1ccccc1)N[C@@H](C)C(=O)N1CCC[C@H]1C(=O)O [Enalapril maleate] + CCCCNC(=O)OCC#CI [3-iodo-2-propynyl butylcarbamate (IPBC)] | 87 ± 9.2 | 93.2 ± 3.5
7 | CO/N=C(\C(=O)N[C@@H]1C(=O)N2C(C(=O)O)=C(C[N+]3(C)CCCC3)CS[C@H]12)c1csc(N)n1 [Cefepime hydrochloride] + CCCCNC(=O)OCC#CI [3-iodo-2-propynyl butylcarbamate (IPBC)] | 92 ± 5.2 | 106 ± 7.8
8 | C[C@]12COC(=O)C[C@@H]1CC[C@@H]1[C@@H]2CC[C@@]2(C)[C@H]1CC[C@]2(C)O [Oxandrolone] + CCCCNC(=O)OCC#CI [3-iodo-2-propynyl butylcarbamate (IPBC)] | 102.8 ± 0.79 | 101.8 ± 0.94
9 | COc1ccc2[nH]c([S+]([O-])Cc3ncc(C)c(OC)c3C)nc2c1 (configuration not stated) [Omeprazole] + CCCCNC(=O)OCC#CI [3-iodo-2-propynyl butylcarbamate (IPBC)] | 86.9 ± 16 | 90.6 ± 9.7
10 | Cc1cc(-n2c(=O)[nH]c(=O)n(C)c2=O)ccc1Oc1ccc(SC(F)(F)F)cc1 [Toltrazuril] + CCCCNC(=O)OCC#CI [3-iodo-2-propynyl butylcarbamate (IPBC)] | 87.8 ± 2.4 | 94.5 ± 3
11 | Cc1ccccc1N1C(=O)c2cc(S(N)(=O)=O)c(Cl)cc2NC1C (configuration not stated) [Metolazone] + CCCCNC(=O)OCC#CI [3-iodo-2-propynyl butylcarbamate (IPBC)] | 99.9 ± 7.8 | 101 ± 4.7
